Test results: PubChem BioAssay AID1963576 (National Center for Advancing Translational Sciences (NCATS), 2024)
About 60 (0.1%) of roughly 46,000 compounds were called active. About 3% were inconclusive and are not listed. The call rests on the fitted dose curve; in most records, active means well fitted inhibition curve with a large enough effect; inconclusive means small, poorly fitted or top-dose-only effect; inactive means no such curve, though single readings can be large or run the other way. The list shows a part of the results.

Experiment: Primary qHTS assay for Inhibitors of ovarian cancer metastasis using an organotypic tumor microenvironment (TME) model. Further: nearly all actives have a fitted effect of over 65% in size.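 On activity change, negative = inhibition: plate controls were DMSO wells for no effect and tomatine positive control wells for full effect.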
Conditions: SKOV3ip1-GFP adhesion/invasion on 3D omental model, fluorescence; series mostly up to 45.8 µM; activity change, negative = inhibition: at the top concentration
In short: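 Primary human omental fibroblast/mesothelial 3D culture pre-formed 48 h. SKOV3ip1-GFP cells added with compounds (0.36-46 umol/L), incubated 2 h RT/16 h 37 C, fixed; GFP cells quantified at 488/509 nm.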

Row | SMILES | activity change, negative = inhibition | outcome
1 | CCOc1ccc2oc(=O)cc(CN3CCN(C(=O)c4cccc(Cl)c4)CC3)c2c1 | inactive: 5.39% | –
2 | Cc1ccccc1C(=O)Nc1cccc(C(=O)OCc2cc(=O)n3c(C)csc3n2)c1 | – | inactive
3 | COc1ccc(CNC(=O)c2ccc(NC(=O)N3CCSc4ncccc43)cc2)c(OC)c1 | inactive: 3.52% | –
4 | Clc1ccc2ncc(-c3cccc(NC4CNC4)n3)n2c1 | inactive: 20.1% | –
5 | Cc1ccc(C)c(Nc2nn3c(=O)c4ccc(C(=O)N(C)Cc5ccccc5)cc4nc3s2)c1 | – | inactive
6 | COC(=O)c1ccccc1NC(=O)Cn1c(=O)cc(-c2ccccc2)c2c(C)nn(C)c21 | inactive: 0.857% | –
7 | CCOC(=O)c1sc2ncn(CC(=O)Nc3cc(C)cc(C)c3)c(=O)c2c1C | – | inactive
8 | CCN(CC)C(=O)Cn1c(=O)n(CCCCCC(=O)Nc2ccccc2)c(=O)c2sccc21 | inactive: -8.44% | –
9 | Cc1ccc(NC(=O)C2CCCN2S(=O)(=O)c2cccc3nsnc23)c(Br)c1 (centres undefined) | inactive: -5.2% | –
10 | Cc1ccc2oc(=O)c3cc(C(=O)NCc4ccc(Cl)cc4)sc3c2c1 | inactive: 4.35% | –
11 | Cc1ccc(CN2CCc3nc(N4CCN(c5ccccc5F)CC4)ncc3C2)s1 | inactive: -1.18% | –
12 | C#CCC(Cc1cnc2nc(N)nc(N)c2n1)c1ccc(C(=O)N[C@@H](CCC(=O)O)C(=O)O)cc1 (some centres undefined) | inactive: 20.2% | –
13 | Cc1cccc(C)c1NC(=O)CCS(=O)(=O)c1ccc2c(c1)n(C)c(=O)c(=O)n2C | inactive: -5.14% | –
14 | COc1ccc(-c2csc3nc(-c4ccc(F)cc4)oc(=O)c23)cc1OC | inactive: 1.88% | –
15 | Cc1cc(SCC(=O)NCc2ccccc2Cl)nc(=O)[nH]1 | – | inactive
16 | Cc1cccc(-c2nc(C)c(CCNC(=O)C(=O)Nc3c(C)cc(C)cc3C)s2)c1 | – | inactive
17 | COc1ccc(CNC(=O)c2ccc(NC(=O)N3CCCCc4ccccc43)cc2)c(OC)c1 | inactive: 3.31% | –
18 | COc1ccc(CNC(=O)C(=O)Nc2ccccc2OC)cc1 | inactive: 5.72% | –
19 | COC(=O)c1sc(S(=O)(=O)N2CCN(c3ccc(OC)cc3)CC2)c(C(=O)OC)c1C | inactive: -0.314% | –
20 | CCC(=O)N1CCc2cc(Br)cc(S(=O)(=O)CCC(=O)NCc3ccc(C)cc3)c21 | inactive: 6.42% | –
21 | Cc1cc(O)c(C(c2ccccc2)N2CCN(c3ccccc3F)CC2)c(=O)n1Cc1ccco1 (centres undefined) | inactive: -0.378% | –
22 | O=C(c1ccccc1)c1ccc2n1CCC2C(=O)O (centres undefined) | inactive: -1.49% | –
23 | Cc1ccc(-c2nc3ccccc3[nH]2)cc1NC(=O)COc1ccc(Cl)cc1Cl | inactive: -9.91% | –
24 | COc1cc(NC(=O)CN2C(=O)C(c3ccc(C)cc3)=NC23CCCCCC3)cc(OC)c1 | inactive: -5.42% | –

Row | SMILES | activity change, negative = inhibition | outcome
25 | CC(=O)Nc1c(C)nn(-c2ccccc2)c1N1CCC(C(=O)Nc2ccc(Cl)cc2C)CC1 | – | inactive
26 | COc1ccc(OC)c(NC(=O)CSc2nccn2-c2cc(C)cc(C)c2)c1 | – | inactive
27 | COc1ccc(-n2nc3c(c2NC(=O)C(=O)NCc2ccccc2)CSC3)cc1 | inactive: 1.18% | –
28 | Cc1ccc(CN2C(=O)CC(c3ccc(Cl)cc3)c3c(C)nn(-c4nc(C)cc(C)n4)c32)cc1 (centres undefined) | inactive: 9.96% | –
29 | Cc1ccc(Cn2c3ccccc3c3cnn(CC(=O)N4CCCCCC4)c(=O)c32)cc1 | – | inactive
30 | CCCC(=O)Nc1nc2c(s1)CC(C(C)(C)C)CC2 (centres undefined) | inactive: 2.83% | –
31 | CC1(C)N=C(c2ccc(F)cc2)C(=O)N1CC(=O)Nc1ccccc1Cl | inactive: 0.634% | –
32 | COc1ccc(-n2c(=O)c3ccc(C(=O)NCc4ccc(C)cc4)cc3n(Cc3ccc(F)cc3Cl)c2=O)cc1 | inactive: -7.29% | –
33 | COc1ccc(N2CCN(C(=O)CCc3nnc4n(C)c(=O)c5sccc5n34)CC2)cc1 | – | inactive
34 | COc1c(N2CCNC(C)C2)c(F)cc2c(=O)c(C(=O)O)cn(C3CC3)c12 (centres undefined) | inactive: 12.1% | –
35 | CCOc1ccc(-n2c(=O)c3c(C)c(C)sc3n(Cc3c(F)cccc3Cl)c2=O)cc1 | inactive: 2.39% | –
36 | COC(=O)c1ccc(NC(=O)CSc2nccn2Cc2ccc(Cl)cc2)cc1 | inactive: -13.4% | –
37 | COC(=O)c1cc2oc(C)cc2n1CC(=O)Nc1ccc(OC)c(OC)c1 | inactive: -3.63% | –
38 | Cn1c(=O)cc(SCC(=O)NCCc2ccc(Cl)cc2)c2cc(Cl)ccc21 | inactive: 1.85% | –
39 | CCc1ccc2oc(C(=O)N(Cc3cccc(Cl)c3)Cc3ccco3)c(C)c2c1 | – | inactive
40 | Cc1cc(C)cc(NC(=O)Cn2c(=O)n(CCC(C)C)c(=O)c3cccnc32)c1 | inactive: 1.16% | –
41 | COc1cccc(CNC(=O)CCCn2c(=O)c3cccn3c3ccc(F)cc32)c1OC | – | inactive
42 | CCN1CCN(c2cc(C)c3cc(NC(=O)c4cc(OC)c(OC)c(OC)c4)ccc3n2)CC1 | inactive: -2.41% | –
43 | CCOc1ccc(-c2nc(CSCC(=O)NCCc3ccccc3)c(C)o2)cc1 | inactive: -4.26% | –
44 | Clc1cccc(N2CCN(c3nc4ccccc4c4nc(-c5ccccc5)nn34)CC2)c1 | inactive: 7.97% | –
45 | COc1cccc(-c2nc(S(=O)(=O)c3ccc(C)cc3)c(NCc3ccccc3)o2)c1 | inactive: 6.85% | –
46 | COc1ccc(N2C(=O)CS(=O)(=O)C23C(=O)N(Cc2ccccc2)c2ccccc23)cc1 (centres undefined) | inactive: 11.6% | –
47 | O=C(Cn1c2ncccc2c(=O)n1-c1ccccc1)Nc1cccc(C(F)(F)F)c1 | – | inactive
48 | O=C(CSc1nc2ccccc2c2nc(-c3ccccc3)nn12)Nc1ccc(F)cc1 | inactive: -16.3% | –

Row | SMILES | activity change, negative = inhibition | outcome
49 | COc1ccc(-c2cc(C(C)=O)c(C)n2CCC(=O)Nc2cccc(C)c2C)cc1 | inactive: -7.07% | –
50 | Cc1ccccc1-c1nc(CS(=O)(=O)CC(=O)Nc2c(C)cccc2C)c(C)o1 | – | inactive
51 | C=C1C(=O)OC(CCCCCCCC)C1C(=O)O (centres undefined) | inactive: -18.7% | –
52 | Cc1ccc(CCNC(=O)Cn2ncc3c(=O)oc4ccccc4c32)cc1 | – | inactive
53 | COc1cc(NC(=O)CN(C)S(=O)(=O)c2ccc3c(c2)CCCC(=O)N3)cc(OC)c1OC | inactive: -1.16% | –
54 | CCc1ccc2c(c1)c(=O)c(S(=O)(=O)c1ccccc1)cn2CC(=O)Nc1cc(C)ccc1C | inactive: 49.7% | –
55 | Cc1cccc(NC(=O)CSc2nc(C)cc(C)c2C(=O)Nc2ccc(Cl)cc2)c1 | inactive: -21.3% | –
56 | Cc1ccc(C)c(NC(=O)Cn2cc(S(=O)(=O)N3CCCC3)c(S(=O)(=O)N3CCCC3)c2)c1 | inactive: 4.03% | –
57 | COc1ccc(Cl)cc1NC(=O)c1cc(=O)c2cc(C)cc(C)c2o1 | inactive: -22.9% | –
58 | CCc1nn2c(=O)cc(COC(=O)c3cccc(NC(=O)COc4ccccc4F)c3)nc2s1 | inactive: 3.22% | –
59 | CCc1nnc(SC(CC)C(=O)NCCOC)c2cc3occc3n12 (centres undefined) | inactive: 6.94% | –
60 | CN1CCN(C(=O)c2cnn(-c3ccccc3)c2C2CCN(C(=O)OC(C)(C)C)CC2)CC1 | inactive: -4.26% | –
61 | CCOc1ccccc1N(C)C(=O)c1cc(S(=O)(=O)NCc2ccc(C)cc2)ccc1F | inactive: -38.8% | –
62 | CCc1cccc(NC(=O)Cn2c(=O)n(Cc3ccccc3)c(=O)c3c(C)c(C(=O)N(C)C)sc32)c1 | – | inactive
63 | CCN(CC)CCCC(C)Nc1nc(C)cc(Nc2ccc3nc(C)cc(N)c3c2)n1 (centres undefined) | inactive: 10.7% | –
64 | COC(=O)c1cc2sc(C)cc2n1Cc1nc(-c2cccc(Br)c2)oc1C | inactive: 0.0914% | –
65 | CCOC(=O)C1CCN(c2csc3ccc(C)cc3c2=O)CC1 | inactive: -0.547% | –
66 | CC(C)(C)OC(=O)N1CCC(c2c(C(=O)N3CCN(c4ccccc4F)CC3)cnn2C(C)(C)C)CC1 | – | inactive
67 | Cc1cccc(-c2nc3c4ccccc4n(CC(=O)Nc4cccc(F)c4)c(=O)n3n2)c1 | inactive: -10.3% | –
68 | CC(=O)N1CCc2cc(S(=O)(=O)CCC(=O)N3CCN(c4cccc(C)c4C)CC3)ccc21 | – | inactive
69 | Cc1cccc(NC(=O)c2c(C)oc3ncn(CC(C)C)c(=O)c23)n1 | inactive: 0.191% | –
70 | Cc1nc2c(C(=O)NCc3ccccc3)c[nH]n2c(=O)c1Cc1ccccc1Cl | – | inactive
71 | Cc1sc2ncn(CC(=O)N(C)c3ccc(Br)cc3)c(=O)c2c1S(=O)(=O)N1CCC(C)CC1 | inactive: 66.1% | –
72 | CC(C)(C)c1ccc(OCC(=O)N2CCC(c3nc4ccccc4s3)CC2)cc1 | inactive: -3.66% | –

Row | SMILES | activity change, negative = inhibition | outcome
73 | Cc1cc(C)c(NC(=O)CSc2nc(=O)[nH]c3c2CCCC3)c(C)c1 | – | inactive
74 | CCCOC1(C(F)(F)F)NC(=O)N(c2ccc(Cl)cc2)C1=O (centres undefined) | – | inactive
75 | CCOc1ccc(-c2nnc(Nc3ccc(S(N)(=O)=O)cc3)c3ccccc23)cc1 | inactive: 7.11% | –
76 | COc1cccc(NC(=O)Nc2cccc(-c3cn4cccnc4n3)c2)c1 | – | inactive
77 | O=C(NCCc1ccccc1)c1cc(-c2ccc(Cl)cc2)on1 | inactive: -4.76% | –
78 | COc1ccc(NC(=O)c2noc3c2CCCC3)cc1Cl | inactive: 4.28% | –
79 | CCOC(=O)c1c(C)[nH]c(C)c1S(=O)(=O)NCC(=O)Nc1cc(C)ccc1OC | – | inactive
80 | COc1ccccc1NC(=O)c1c(NCc2ccc(OC)c(OC)c2OC)sc2c1CCCC2 | inactive: 12.5% | –
81 | COc1ccc(NC(=O)c2cc3c(=O)n(Cc4ccco4)ccc3nc2C)cc1 | inactive: 9.79% | –
82 | Cc1ccc(NC(=O)Nc2ccc3c(c2)N(C)C(=O)c2ccccc2S3)c(C)c1 | inactive: -8.79% | –
83 | CN1C(C(=O)c2ccccc2)=C(OC(=O)c2ccc(Br)cc2)c2ccccc2S1(=O)=O | inactive: -11.1% | –
84 | Cc1oc2c(c(C)cc3oc(=O)c(CC(=O)NCCc4ccccc4)c(C)c32)c1C | inactive: 5.39% | –
85 | O=C(NCCc1csc2nc(-c3ccccc3F)nn12)c1ccco1 | inactive: -14.6% | –
86 | O=C(NC(=O)c1ccc(F)cc1)Nc1ccc(-c2cc(C(F)(F)F)nn2-c2ccccc2)cc1 | – | inactive
87 | COc1cccc(C2C=C(c3ccc(C)c(C)c3)Nc3nnnn32)c1OC (centres undefined) | – | inactive
88 | Cc1ccc(-c2c(CN3CCN(c4cccc(C(F)(F)F)c4)CC3)csc2C)cc1 | inactive: 4.91% | –
89 | COc1ccc(N2CCN(S(=O)(=O)CCNC(=O)C(c3ccccc3)c3ccccc3)CC2)cc1 | inactive: -15.6% | –
90 | CCOC(=O)c1ccc(Nc2nc3ccccc3nc2NS(=O)(=O)c2ccc(Cl)cc2)cc1 | inactive: 3.7% | –
91 | CCN1CCN(CCCNC(=O)c2cnn(-c3ccccc3)c2C2CCN(C(=O)OC(C)(C)C)CC2)CC1 | inactive: -10.5% | –
92 | O=C1CSC2(C(=O)N(Cc3ccccc3F)c3ccccc32)N1c1ccc(F)cc1 (centres undefined) | inactive: 19.4% | –
93 | COc1cc(NC(=O)c2ccc(C)cc2)ccc1NC(=O)c1cc2ccccc2o1 | inactive: 1.25% | –
94 | COc1ccc(CCC(=O)N2CCc3c([nH]c4ccccc34)C2c2ccc(F)cc2)cc1 (centres undefined) | inactive: -5.87% | –
